Measured values: PMC6919601, “Identification of Plasmodium dipeptidyl aminopeptidase allosteric inhibitors by high throughput screening” (PLoS ONE, 2019)
The campaign covered roughly 110,000 compounds. About 230 (0.21%) showed an effect of 50% or more. The list shows a part of the results.

These molecules were tested against DPAP1 (Plasmodium falciparum, UniProt Q8IIJ9) (assay: primary screen, percent inhibition; read by cleavage of a fluorogenic dipeptide substrate; higher = more effect of the substance).
Set-up: species or system P. falciparum D10 trophozoite lysates; single well
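Note: 30 min substrate incubation versus DMSO and 10 µM JCP410 controls.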

Chain of DPAP1 (Q8IIJ9 whole entry, looked up): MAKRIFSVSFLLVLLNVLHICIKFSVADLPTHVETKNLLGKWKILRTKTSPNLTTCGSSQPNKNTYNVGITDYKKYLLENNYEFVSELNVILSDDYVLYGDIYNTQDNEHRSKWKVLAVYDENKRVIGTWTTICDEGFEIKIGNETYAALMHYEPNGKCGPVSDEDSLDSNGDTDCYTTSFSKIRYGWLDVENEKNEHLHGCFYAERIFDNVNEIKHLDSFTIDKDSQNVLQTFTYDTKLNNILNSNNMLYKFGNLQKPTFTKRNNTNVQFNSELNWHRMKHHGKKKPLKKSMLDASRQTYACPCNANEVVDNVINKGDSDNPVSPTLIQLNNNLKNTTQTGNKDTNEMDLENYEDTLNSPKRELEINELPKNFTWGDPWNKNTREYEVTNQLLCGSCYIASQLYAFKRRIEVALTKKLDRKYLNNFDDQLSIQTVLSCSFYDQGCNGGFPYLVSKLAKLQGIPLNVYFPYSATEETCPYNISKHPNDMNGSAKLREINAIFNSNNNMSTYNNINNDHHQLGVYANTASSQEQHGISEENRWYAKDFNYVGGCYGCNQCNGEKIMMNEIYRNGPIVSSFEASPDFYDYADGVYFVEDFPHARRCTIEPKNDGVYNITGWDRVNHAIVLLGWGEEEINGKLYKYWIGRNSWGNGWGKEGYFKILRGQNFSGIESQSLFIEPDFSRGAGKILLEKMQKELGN

SMILES | % Inhibition @ 10 uM
CCCSc1ncc(Cl)c(C(=O)Nc2nc3ccc(OC)cc3s2)n1 | -0.45%
CC1CCCN(CC(O)COc2ccccc2F)C1 (stereo not drawn) | 12.3%
CC1CCCC(C)N1C(=O)c1cc(-c2ccc3c(c2)OCO3)on1 (stereo not drawn) | -0.591%
COc1ccc(-c2nc(CSc3nc(O)c4c(n3)CCCC4)c(C)o2)cc1 | -1.21%
Cn1cccc1Cc1nnc(SCC(=O)NCC2CCCO2)n1-c1ccc(Cl)cc1 (stereo not drawn) | 3.75%
CC(=O)N1N=C(c2ccccc2O)CC1c1ccc(Cl)cc1 (stereo not drawn) | 2.06%
Cc1nn(CC(=O)NC2CCCC2)c2ccccc12 | -2.88%
O=C(O)c1ccccc1NC(=O)C1CCCC1 | 1.93%
COc1ccc(Cl)cc1-n1nnc(-c2nsc(NC(=O)c3cccs3)n2)c1C | -0.658%
CCOC(=O)c1c(Cl)nc2ccccc2c1Cl | -4.27%
CC(C)C[C@H](NC(=O)N1CCN(c2ccccn2)CC1)C(=O)NCC#N | -1.82%
COc1ccc(N2CCN(C(=O)CN(C)S(=O)(=O)c3c(C)cc(C)cc3C)CC2)cc1 | -2.29%
Cc1cc(O)nc(N(C)Cc2ccccc2)n1 | 2.16%
Cc1nn(C(C)C(=O)N2CCN(c3ccccn3)CC2)c(=O)c2nn(-c3ccccc3)c(C)c12 (stereo not drawn) | 0.58%
O=C(O)c1cc(NS(=O)(=O)c2ccc(F)cc2)ccc1O | -0.736%
Cc1cc(Cl)nc(Cl)c1C#N | -0.818%
O=C(CCCc1cn(Cc2ccc(F)cc2)c2ccccc12)NCC1CCCO1 (stereo not drawn) | 3.8%
Cc1cc(C)nc(SCc2nnc(SCC(N)=O)n2-c2cccc(C(F)(F)F)c2)n1 | -3.37%
C=CCNC(=O)/C(=C/c1ccc2c(c1)OCO2)NC(=O)c1ccc(OC)cc1 | 2.51%
COc1cc(OC)c(OC)cc1CN1CCN(C(=O)COc2ccccc2)CC1 | 2.3%
Cc1ccc(-n2ncc3c(NCCc4ccc(S(N)(=O)=O)cc4)ncnc32)c(C)c1 | 2.95%
Cc1cc(C)c2nc(N3CCC(C(=O)NCC(C)c4ccccc4)CC3)sc2c1 (stereo not drawn) | 4.95%
O=C1/C(=C\c2ccccc2)N=C2SC=C(c3ccc(Br)cc3)N12 | 3.05%
CCCC(=O)Nc1ccc(Oc2ccc(NC(=O)CCC)cc2)cc1 | 0.605%
CSc1ccc(/C=C2/SC(=O)NC2=O)cc1 | -0.582%
N#CC1=C(N)OC2=C(C(=O)CC(c3ccccc3)C2)C1c1ccc(Br)s1 (stereo not drawn) | -12.9%

SMILES | % Inhibition @ 10 uM
CCO/C(O)=C1\C(C)=NC2=C(C(=O)CC(C)(C)C2)C1c1ccc(OC)c(O)c1 (stereo not drawn) | -1.71%
O=S(=O)(c1ccc2ccccc2c1)N1CCN(c2nnc(-c3ccccc3)c3ccccc23)CC1 | -3.41%
Cc1c(O)ccc2cc(S(=O)(=O)c3ccccc3)c(=O)oc12 | 0.44%
CCOC(=O)c1ccc2nc(Nc3nc4c(F)cccc4s3)sc2c1 | -3.09%
COc1ccc(CCC(=O)Nc2ccc(S(N)(=O)=O)cc2)cc1 | 4.64%
CC(=O)NC(C(=O)c1ccccc1)C(=O)c1ccccc1 | 8.4%
Cc1cccc(C(=O)NC(C)c2nc3ccccc3n2C)c1 (stereo not drawn) | 0.505%
COc1cccc(C(=O)NCCN2CCCC2)c1 | 6.35%
COc1cc(/C=C2/S/C(=N/c3ccccc3)N(C)C2=O)ccc1OCC#N | 11%
N#CCNC(=O)[C@H](Cc1ccccc1)NC(=O)c1ccc(-c2ccccc2Cl)cc1 | 1.35%
COc1cc2nc(NCCN3C(C)CCCC3C)n3nc(-c4cccnc4)nc3c2cc1OC (stereo not drawn) | -4.21%
CCn1cc(CNC(=O)c2sc3cccc(Cl)c3c2Cl)cn1 | 0.983%
Cn1cc(NC(=O)N2CCOCC2)c2ccccc2c1=O | 3.72%
CCOC(=O)c1sc(NC(=O)c2cc(=O)c3ccccc3o2)nc1C | 0.0289%
O=C(COc1cccc2ccccc12)Nc1ccc(S(=O)(=O)N2CCCC2)cc1 | -1.51%
CCN1C(=O)C(=Cc2ccc(N(CC)CC)cc2)C(=O)N(CC)C1=S | 5.66%
O=C1/C(=C\c2ccc(Br)o2)CC/C1=C/c1ccc(Br)o1 | 1.07%
COc1ccc(-c2cc(C(=O)NCCCN3CCOCC3)c3cc(C(C)C)ccc3n2)cc1 | -2.26%
CC(=O)c1nn(-c2cccc(Br)c2)c(-c2cccs2)c1C#N | 2.01%
COCCNc1nc2ccccc2n2nnnc12 | 5.84%
COc1ccc(-c2nc(SC)cc(N3CCN(C)CC3)n2)cc1 | -11.4%
CC1CCc2c(sc(NC(=O)C3CC=CCC3C(=O)O)c2C(N)=O)C1 (stereo not drawn) | 16.5%
CCS(=O)(=O)N1CCC2(CC1)OC(=O)C(C)=C2C(=O)NCCc1ccc(OC)c(OC)c1 | -5.72%
COc1ccc(NC(=O)CN(Cc2ccc(Cl)cc2)S(=O)(=O)c2ccccc2)cc1Cl | 3.5%
O=C(Nc1ccc2ccccc2c1)c1ccccc1F | -5.11%
N#Cc1c(-c2ccccc2)cc(C(F)(F)F)nc1S | 76.9%

SMILES | % Inhibition @ 10 uM
COc1ccc(-n2c(-c3ccccc3)cn(-c3ccc(C)cc3)c2=O)cc1 | 1.15%
CNC(=O)c1cc2c(=O)n3cc(C)ccc3nc2n(Cc2ccco2)c1=N | -3.27%
CC(=O)NS(=O)(=O)c1ccc(NC(=O)C2CC=CCC2C(=O)O)cc1 (stereo not drawn) | -0.318%
C=CCNc1nnc(COc2ccc(Br)cc2)s1 | -1.71%
CCc1ccc(OCC(=O)Nc2ccc(S(=O)(=O)N3CCOCC3)cc2)cc1 | -7.84%
O=C(COc1ccccc1F)n1nnc2ccccc21 | -1.6%
COC(=O)C1=C(C)N=c2s/c(=C/c3ccco3)c(=O)n2C1c1cccs1 (stereo not drawn) | 7.62%
Cc1ccc2occ(CC(=O)Nc3nc4ccc(S(C)(=O)=O)cc4s3)c2c1 | -4.19%
O=C(Nc1ccc(F)cc1)Nc1cccc(Cl)c1 | 1.48%
CC1CN(Cc2cccc(F)c2)CC(C)O1 (stereo not drawn) | -3.15%
CC(C)C(NC1C=CS(=O)(=O)C1)C(=O)O (stereo not drawn) | -5.28%
Oc1c2nc(S)nc-2cnn1-c1ccccc1 | 87.4%
COc1ccc(S(=O)(=O)N2CCN(c3nc4ccccc4nc3-n3nc(C)cc3C)CC2)cc1 | -3.9%
COc1ccc(C2NC(=O)NC(C)=C2C(=O)Nc2ccc(Cl)cc2)cc1OC (stereo not drawn) | 0.35%
Cc1ccc(CCN2CC(C(=O)NCCCN3CCN(C)CC3)CC2=O)cc1 (stereo not drawn) | 1.62%
COc1ccc(NC(=O)c2c(NC(=O)CCC(=O)O)sc3c2CCC(C(C)(C)C)C3)cc1 (stereo not drawn) | 10.3%
OC(COc1ccc(Br)cc1)CN1CCN(c2ccccc2)CC1 (stereo not drawn) | 0.389%
Cc1cc(=O)oc(C)c1C(=O)NCCCN1C(C)CCCC1C (stereo not drawn) | -0.519%
CCOC(=O)c1c(C)c(-c2ccccc2)n(CC(=O)Nc2cccnc2)c1C | -1.66%
Cc1ccc(-c2cc(C(=O)N3C(C)CCCC3C)n[nH]2)cc1 (stereo not drawn) | -3.1%
CCSc1nc(O)c2c(n1)OC(N)=C(C#N)C2C(C)C (stereo not drawn) | -5.85%
Cc1cc(C)n2nc(C)c(-c3ccc(Cl)cc3)c2n1 | 0.345%
Cc1cc(=O)n2nc(N3CCC(C(=O)N4CCOCC4)CC3)sc2n1 | -2%
CCN1CCN(C(=O)C2CCN(c3nnc(C)c4c(C)n(-c5ccc(C)cc5)nc34)CC2)CC1 | 2.92%
CCc1ccc(C2C(C#N)=C(N)OC3=C2C(=O)c2ccccc2C3=O)cc1 (stereo not drawn) | 0.815%
COc1ccc(/N=C2/S/C(=C\c3ccc(O)c(Cl)c3)C(=O)N2C)cc1 | 2.37%

SMILES | % Inhibition @ 10 uM
COc1ccc(NC(=O)c2scc3c2CCCC3)cc1 | -2.56%
COc1ccc2c(c1)cc1n2CCN=C1NCCO | 2.14%
OC1=C2C(=Nc3nc4ccccc4n3C2c2cccc(F)c2Br)CCC1 (stereo not drawn) | -1.62%
COc1ccc(CNC(=O)CN(c2cc(Cl)ccc2C)S(C)(=O)=O)cc1 | 2.13%
Cc1ccc(CNC(=O)NC2CCCCC2)cc1 | 3.85%
O=C(c1cccs1)c1no[n+]([O-])c1C(=O)c1cccs1 | 5.7%
CSC1=N/C(=C\C=C\c2cccs2)C(=O)S1 | 0.884%
NC(=O)CS(=O)(=O)c1nc2ccccc2n1Cc1ccccc1F | 2.64%
CCn1c(SC)nc2sc3c(c2c1=O)CCc1ccccc1-3 | -7.23%
O=C(CSc1ccccc1)NC1CCCC1 | 1.02%
Cc1[nH]nc(-c2ccc(S(=O)(=O)N3CCCC3)s2)c1C | -4.36%
COc1ccccc1/C=C/CN1CCCC(O)C1 (stereo not drawn) | 0.217%
CCCNC(=O)c1ccc2c(c1)c(C)c(C)n2C | 0.747%
COc1ccc(-c2c(C)oc3cc(OC(C)C(=O)O)ccc3c2=O)cc1OC (stereo not drawn) | -1.11%
O=C(Cn1ncc2c3ccccc3n(Cc3ccccc3)c2c1=O)NCC1CCCO1 (stereo not drawn) | 0.137%
COc1ccc(/C=C2\Oc3cc(OCc4ccccc4F)ccc3C2=O)cc1 | -1.81%
NC(=O)/C(=C\c1ccccc1F)NC(=O)c1ccccc1 | 1.27%
CCN(CC)CCCN1C(=O)CSC1c1ccc2c(c1)OCO2 (stereo not drawn) | 2.94%
C(=N\c1cc(-c2ccccc2)nn1-c1ccccc1)/c1cccnc1 | 2.8%
CCN(CC)c1ccc2c(C(F)(F)F)cc(=O)oc2c1 | -4.21%
CN1CCN(CCNC(=O)C2c3ccccc3C(=O)N(C)C2c2cccs2)CC1 (stereo not drawn) | -7.02%
COc1cc2nc(S)nc(NC3CCCCCC3)c2cc1OC | -4.69%
O=C(c1ccc(CN2CCc3ccccc3C2)cc1)N1CCCCC1 | -0.0626%
C=CCn1c(SCc2ccc(Cl)cc2)nc2c1c(=O)n(C)c(=O)n2C | 1.35%
